Source: the supplement of paper PMC4604168 (melanoma cell lines)
Some of the results follow. Single values are uncertain, as repeats are few or missing.

Tests used:
Assay in all cases: cell count relative to DMSO control; melanoma cells; higher = more viable cells
Conditions in all cases: library dose: low library concentration; 72 h
WM115 = tested on: WM115
WM1716 = tested on: WM1716
WM1745 = tested on: WM1745
WM3526 = tested on: WM3526
WM3619 = tested on: WM3619
WM451Lu = tested on: WM451Lu
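Note: cell number obtained by counting DAPI-stained nuclei in high-throughput microscope images with image analysis software, screen run in 1,536-well plates.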

Compound | cell count (WM115) | cell count (WM1716) | cell count (WM1745) | cell count (WM3526) | cell count (WM3619) | cell count (WM451Lu)
OCc1c[nH]c2ccccc12 [Indole-3-carbinol] + COc1cc2ncnc(Nc3ccc(Oc4ccccc4)cc3)c2cc1OC [SrcI1] (first compound 0.8 µM, partner dose 2 µM) | 105% | 126% | 90.1% | 102% | 107% | 105%
Cn1c(Nc2ccc(C(F)(F)F)cc2)nc2cc(Oc3ccnc(-c4ncc(C(F)(F)F)[nH]4)c3)ccc21 + O=C(O)C(=O)Nc1sc2c(c1C(=O)O)CCNC2 [TCS401] (first compound 0.08 µM, partner dose 1.66667 µM) | 57.1% | 69% | 74.6% | 59.7% | 80.7% | 117%
Cn1c(Nc2ccc(C(F)(F)F)cc2)nc2cc(Oc3ccnc(-c4ncc(C(F)(F)F)[nH]4)c3)ccc21 + CCCCCCCCCCCC1=C(O)C(=O)C=C(O)C1=O [Embelin] (first compound 0.08 µM, partner dose 1.2 µM) | 56.5% | 91.9% | 73.1% | 53.3% | 63.5% | 94.9%
Clc1ccc(Nc2nnc(Cc3ccncc3)c3ccccc23)cc1 [vatalanib] + O=S(=O)(c1ccccc1)N(CC(F)(F)F)c1ccc(C(O)(C(F)(F)F)C(F)(F)F)cc1 [T0901317] (first compound 2 µM, partner dose 1.4 µM) | 88.6% | 90.7% | 74.7% | 109% | 104% | 104%
COCC[n+]1c2c(n(Cc3cnccn3)c1C)C(=O)c1ccccc1C2=O + O=C(Nc1cccc(Cl)c1)Nc1ncc(CCNc2ncnc3ccsc23)s1 [SNS314] (first compound 0.0004 µM, partner dose 0.0008 µM) | 83.6% | 101% | 109% | 100% | 101% | 40.1%
C#Cc1cccc(Nc2ncnc3cc(OCCOC)c(OCCOC)cc23)c1 [erlotinib] + C[C@]1(c2nc3c(C(N)=O)cccc3[nH]2)CCCN1 [Veliparib] (first compound 0.8 µM, partner dose 1.4 µM) | 96.6% | 95.4% | 84.4% | 102% | 101% | 89.9%
C#Cc1cccc(Nc2ncnc3cc(OCCOC)c(OCCOC)cc23)c1 [erlotinib] + CC1(C)NC(=O)N(c2ccc([N+](=O)[O-])c(C(F)(F)F)c2)C1=O [nilutamide] (first compound 0.8 µM, partner dose 1 µM) | 86.8% | 93.5% | 86.9% | 95.2% | 97.5% | 73.8%
Clc1ccc(Nc2nnc(Cc3ccncc3)c3ccccc23)cc1 [vatalanib] + COc1ccc(Cl)c(Nc2nc3ccccc3nc2NS(=O)(=O)c2cccc(NC(=O)C(C)(C)N)c2)c1 [XL147] (first compound 2 µM, partner dose 0.8 µM) | 101% | 74.5% | 111% | 103% | 84.5% | 92.3%
C#Cc1cccc(Nc2ncnc3cc(OCCOC)c(OCCOC)cc23)c1 [erlotinib] + O=C1NC(=O)/C(=C/c2ccc(-c3ccc(F)cc3O)o2)S1 [AS252424] (first compound 0.8 µM, partner dose 1 µM) | 98.7% | 98.8% | 79.9% | 90.9% | 83.5% | 95.5%
Cn1c(Nc2ccc(C(F)(F)F)cc2)nc2cc(Oc3ccnc(-c4ncc(C(F)(F)F)[nH]4)c3)ccc21 + COc1ccc(-c2ccc3c(N4CCOCC4)nc(N4C[C@@H](C)O[C@@H](C)C4)nc3n2)cc1CO [KU0063794] (first compound 0.08 µM, partner dose 0.02 µM) | 43.8% | 56.1% | 57.8% | 43.8% | 57.2% | 81.7%
Nc1cccc2c1CN(C1CCC(=O)NC1=O)C2=O (configuration not stated) [lenalidomide] + CO[C@@H]1[C@H](N(C)C(=O)c2ccccc2)C[C@H]2O[C@]1(C)n1c3ccccc3c3c4c(c5c6ccccc6n2c5c31)C(=O)NC4 [Midostaurin] (first compound 1 µM, partner dose 0.08 µM) | 101% | 85.1% | 102% | 94.5% | 78.4% | 114%
Clc1ccc(Nc2nnc(Cc3ccncc3)c3ccccc23)cc1 [vatalanib] + C[C@]1(c2nc3c(C(N)=O)cccc3[nH]2)CCCN1 [Veliparib] (first compound 2 µM, partner dose 1.4 µM) | 91.9% | 95.9% | 97.4% | 91.2% | 74.9% | 113%
COCC[n+]1c2c(n(Cc3cnccn3)c1C)C(=O)c1ccccc1C2=O + C[C@]1(c2nc3c(C(N)=O)cccc3[nH]2)CCCN1 [Veliparib] (first compound 0.0004 µM, partner dose 1.4 µM) | 83.6% | 75.9% | 82.6% | 93.3% | 84.6% | 72.4%
Nc1cccc2c1CN(C1CCC(=O)NC1=O)C2=O (configuration not stated) [lenalidomide] + NC(=O)Nc1cc(-c2cccc(F)c2)sc1C(=O)N[C@H]1CCCNC1 [AZD7762] (first compound 1 µM, partner dose 0.02 µM) | 85.6% | 86.7% | 92.9% | 92.6% | 74.3% | 98.4%
C#Cc1cccc(Nc2ncnc3cc(OCCOC)c(OCCOC)cc23)c1 [erlotinib] + COc1ccc(Cl)c(Nc2nc3ccccc3nc2NS(=O)(=O)c2cccc(NC(=O)C(C)(C)N)c2)c1 [XL147] (first compound 0.8 µM, partner dose 0.8 µM) | 89.2% | 88.6% | 85.5% | 102% | 94.5% | 82%
Clc1ccc(Nc2nnc(Cc3ccncc3)c3ccccc23)cc1 [vatalanib] + O=C(Nc1cccc(Cl)c1)Nc1ncc(CCNc2ncnc3ccsc23)s1 [SNS314] (first compound 2 µM, partner dose 0.0008 µM) | 90.3% | 97.4% | 80.7% | 84.4% | 77.2% | 102%
Clc1ccc(Nc2nnc(Cc3ccncc3)c3ccccc23)cc1 [vatalanib] + Oc1cc(-c2nc(-c3ccccc3)[nH]c2-c2ccncc2)ccc1Cl [L779450] (first compound 2 µM, partner dose 0.2 µM) | 63.2% | 101% | 78.8% | 64.5% | 111% | 102%
Nc1cccc2c1CN(C1CCC(=O)NC1=O)C2=O (configuration not stated) [lenalidomide] + C[C@@H]1CCN(C(=O)CC#N)C[C@@H]1N(C)c1ncnc2[nH]ccc12 [CP690550] (first compound 1 µM, partner dose 1 µM) | 105% | 97.3% | 97.2% | 114% | 96.1% | 97.9%
OCc1c[nH]c2ccccc12 [Indole-3-carbinol] + O=C1NC(=O)/C(=C/c2ccc(-c3ccc(F)cc3O)o2)S1 [AS252424] (first compound 0.8 µM, partner dose 1 µM) | 94.5% | 91.8% | 92.2% | 96% | 99.4% | 105%
Nc1cccc2c1CN(C1CCC(=O)NC1=O)C2=O (configuration not stated) [lenalidomide] + COc1cc2ncnc(Nc3ccc(Oc4ccccc4)cc3)c2cc1OC [SrcI1] (first compound 1 µM, partner dose 2 µM) | 102% | 111% | 91.5% | 84.7% | 121% | 119%
COCC[n+]1c2c(n(Cc3cnccn3)c1C)C(=O)c1ccccc1C2=O + COc1cc2c(Oc3ccc4[nH]c(C)cc4c3F)ncnc2cc1OCCCN1CCCC1 [cediranib] (first compound 0.0004 µM, partner dose 0.4 µM) | 104% | 87.7% | 107% | 88.6% | 88.3% | 56.2%
C#Cc1cccc(Nc2ncnc3cc(OCCOC)c(OCCOC)cc23)c1 [erlotinib] + Cn1c(Nc2ccc(C(F)(F)F)cc2)nc2cc(Oc3ccnc(-c4ncc(C(F)(F)F)[nH]4)c3)ccc21 [CHIR265] (first compound 0.8 µM, partner dose 0.08 µM) | 59.1% | 78.4% | 75.7% | 47% | 80.9% | 82%
C#Cc1cccc(Nc2ncnc3cc(OCCOC)c(OCCOC)cc23)c1 [erlotinib] + CC(C)CCN1c2nc(Nc3cc(F)c(O)c(F)c3)ncc2N(C)C(=O)C1C [BID1870] (first compound 0.8 µM, partner dose 0.2 µM) | 89.3% | 91.2% | 87% | 87.7% | 109% | 98.3%
Nc1cccc2c1CN(C1CCC(=O)NC1=O)C2=O (configuration not stated) [lenalidomide] + CN(NC(=O)CC(=O)NN(C)C(=S)c1ccccc1)C(=S)c1ccccc1 [STA4783] (first compound 1 µM, partner dose 0.006 µM) | 83.2% | 80.3% | 41.9% | 90.8% | 53.1% | 112%
OCc1c[nH]c2ccccc12 [Indole-3-carbinol] + NCC(=O)Nc1ccc(-n2nc(C(F)(F)F)cc2-c2ccc3c(ccc4ccccc43)c2)cc1 [OSU03012] (first compound 0.8 µM, partner dose 1 µM) | 78.5% | 106% | 110% | 65.7% | 99.8% | 60.4%
Nc1cccc2c1CN(C1CCC(=O)NC1=O)C2=O (configuration not stated) [lenalidomide] + O=C(O)c1ccc(-c2c[nH]c3ncc(-c4ccccc4)cc23)cc1C1CCCC1 [GSK650394] (first compound 1 µM, partner dose 0.16 µM) | 104% | 96.6% | 86.1% | 88.5% | 102% | 109%
COCC[n+]1c2c(n(Cc3cnccn3)c1C)C(=O)c1ccccc1C2=O + COc1ccc(COc2ccc(Cc3cnc(N)nc3N)cc2OC)cc1 [GW2580] (first compound 0.0004 µM, partner dose 1 µM) | 104% | 97.2% | 99.2% | 98.6% | 155% | 101%
